Experimental data reported in the supplement of paper PMC11417369.
This is one part of the list.

test system: PfSIP2 AP2 domain 1 (GST-tagged); assay: gcPBM binding intensity (ln(normalized median fluorescence intensity)); higher = stronger DNA binding
In short: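 Each value is the highest Masliner-normalised natural-log median intensity across replicate spots of either orientation of a probe. The probes were primer-extended double-stranded 36-bp intergenic genomic sequences on an Agilent 4 × 180k array, alongside negative controls, exposed for 1 h to GST-tagged P. falciparum DNA-binding domains expressed in E. coli. Bound protein was picked up with Alexa488 anti-GST antibody and scanned at 488 nm.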

Going from “TTTTTTTTTTTAAATACATGCATGTCCTATTTAAAT [TGCATGCA_site494]” to “ATAAATAAAAAAAAAAAAAAAAAAAAAAAAAAAATA [CACACA_negctrl_site1064]”, the “gcPBM binding intensity (ln)” value rises from 6.74 to 6.86.

Going from “GTTGTATAAAATAATACATGCATGTCCTACATATAT [TGCATGCA_site162]” to “GTAATATATTTTTATGGTACACGAACTAGCCAAAAA [XGTACX_site6307]”, the “gcPBM binding intensity (ln)” value rises from 7.16 to 7.22.

Going from “TAATATATTTATAAGTGTACACATTATATAAATCCC [XGTACX_site8875]” to “AGTAATAACTATATATGTACATATATATATTATTAG [XGTACX_site1113]”, the “gcPBM binding intensity (ln)” value falls from 7.28 to 6.98.

Compared with “CCGCATTTTACAGACACACACAATTTATATTACGGT [CACACA_site6974]”, “AAAGATGAATTTTTTACACACACCATTTTATAATAT [CACACA_site3676]” is lower in “gcPBM binding intensity (ln)” value: 7.16 for the first, 6.98 for the second.

Going from “TAAAATTTTGTTTGTTGTACTTATTTTCGTGTCAAC [XGTACX_site8277]” to “AAAAGTATAATAAATTGTACTAACAAATATTTATGT [XGTACX_site7721]”, the “gcPBM binding intensity (ln)” value falls from 7.03 to 7.01.

Compared with “AAAAAAAAAAAAAAAAAAAAATATATATATATATAT [GTGCAC_negctrl_site426]”, “AATGTAAAACCTCCTACACACACCAATTAACTATTC [CACACA_site2112]” is lower in “gcPBM binding intensity (ln)” value: 9.74 for the first, 6.91 for the second.

Going from “TACTTATCGTTAAATTGTACTAAAAAATATTTTTCT [XGTACX_site4665]” to “TTATAATAAAAGGCTTTACAATTATTAAACAAATAA [GTGCAC_negctrl_site480]”, the “gcPBM binding intensity (ln)” value falls from 7.01 to 6.75.

Compared with “AAAAAAGAAGAGCACACACACATATATAAATATAAA [CACACA_site631]”, “GCCATTGTACCATCCACACACATATATATCTGTATA [CACACA_site5490]” is higher in “gcPBM binding intensity (ln)” value: 6.9 for the first, 7.54 for the second.

First: TGGTATTAAGGAGAGGGTACAAAAAAAAAAAAAAAA [XGTACX_site1668]
Second: TTCTAATATTTACATAATATATAGAAATATAAAGGT [XGTACX_negctrl_site504]
The “gcPBM binding intensity (ln)” value of the first is lower: 7.04 for the first, 7.4 for the second.

First: AAATATAAACTCAGCACACAAACATATATATGTCAT [CACACA_site4004]
Second: ATGGTATAAAAAAATACACACTTATATATATTCTTA [CACACA_site4427]
The “gcPBM binding intensity (ln)” value of the first is higher: 6.91 for the first, 6.86 for the second.

First: TTTTTTTTTTTTTCTCGTACAAAATAATACCTTTTT [XGTACX_site3867]
Second: GTAGACATTATAATGGTGCAAAAAAATTAACAAAAA [GTGCAC_site9891]
The “gcPBM binding intensity (ln)” value of the first is lower: 6.92 for the first, 10.5 for the second.

Going from “AGGGAATATTTTTATGCATGTGCTTACACATTACAA [TGCATGCA_site830]” to “AAAAAAAACGGACACACACACATACAAAATATATAT [CACACA_site4910]”, the “gcPBM binding intensity (ln)” value rises from 7.11 to 7.22.

Compared with “AAGAAAAGCATAGATGCACACATATATATATATATA [CACACA_site8675]”, “GGAACTTAAAAAAAATGTACTTATAAAAAAGGAAAT [XGTACX_site8186]” is lower in “gcPBM binding intensity (ln)” value: 9.61 for the first, 7.04 for the second.

Compared with “AACATGCAAACATGCACACAGAAAAAAAAAATATAT [CACACA_site1565]”, “TTACACATACATATGTGGGAAAATATTGCTACATAT [CACACA_negctrl_site463]” is lower in “gcPBM binding intensity (ln)” value: 8.15 for the first, 6.89 for the second.

Compared with “TATATATATATATATACACACATATATATATTTTTC [CACACA_site3983]”, “ATCATTATATTATGGTGTACCCATATATAATTATCA [XGTACX_site551]” is lower in “gcPBM binding intensity (ln)” value: 9.83 for the first, 7.11 for the second.

Going from “CATTAAACCGTGGGAGCACACACACCCACCCACCCA [CACACA_site8000]” to “AATTTAAAGAATTGTAGTACAATGAAATATATATAA [XGTACX_site7970]”, the “gcPBM binding intensity (ln)” value falls from 7.26 to 7.05.

First: AATACCTATGGAATTAATAATATGTGTACAGACACA [TGCATGCA_negctrl_site547]
Second: AACAATGGATTATTCACACATAAAAAAATTCACATT [CACACA_site5437]
The “gcPBM binding intensity (ln)” value of the first is higher: 7.02 for the first, 6.79 for the second.

Going from “AAAAAAATATATATATGTACATAACTTTGTTGTGAT [XGTACX_site5243]” to “TGTTAAATTATTTATCAGATTATTATTTGTAAATAA [CACACA_negctrl_site1535]”, the “gcPBM binding intensity (ln)” value falls from 7.17 to 6.7.

Going from “TTTGAACATTTTGCAAGTACAAAAAAATAATATATC [XGTACX_site8079]” to “AAGAAAAATAATTAGGGTGAAAATATATAGAGTAAA [TGCATGCA_negctrl_site590]”, the “gcPBM binding intensity (ln)” value falls from 7.08 to 7.06.

Going from “CAATTCTTAAGTTCTTGTACGAAAAACGACAATTTA [XGTACX_site3890]” to “ACACATATATATATATATATATATATATATATATAT [CACACA_negctrl_site1766]”, the “gcPBM binding intensity (ln)” value rises from 6.75 to 9.44.

First: GGTAATAATATGCATAGTACATAATATATATATATA [XGTACX_site6793]
Second: TATTATATAAAATATTTTATTATATCATCTTCTCTA [XGTACX_negctrl_site319]
The “gcPBM binding intensity (ln)” value of the first is higher: 9.41 for the first, 6.77 for the second.

Going from “ATAATATAAATAATTATACACACTTAATATATATAT [CACACA_site2782]” to “GTATGTATGTATGTATGTACGTATTTATTTATTTAA [XGTACX_site726]”, the “gcPBM binding intensity (ln)” value falls from 8.43 to 8.09.

Going from “AAAAATGGTGTTAACACACACATATAAATAAATATA [CACACA_site6412]” to “TAAATGTGAAATTTTATATTTTATATAATATACAAT [CACACA_negctrl_site76]”, the “gcPBM binding intensity (ln)” value falls from 6.87 to 6.75.

Going from “AAGGATCACCCACAAACACACATATATATATATATA [CACACA_site559]” to “AACATAAGTAATATTTGTACATATATAATAATATAT [XGTACX_site5123]”, the “gcPBM binding intensity (ln)” value falls from 9.78 to 6.95.

First: ATCATATTTTTATGTGTGCACTTTTTTTTTTTTTTT [GTGCAC_site9555]
Second: CTCTTATACATATTCCTGCACTTATTTTTAAAAACA [GTGCAC_site9620]
The “gcPBM binding intensity (ln)” value of the first is higher: 10.8 for the first, 8.37 for the second.

Compared with “TAATTTTATATAAATTGTACAAAAATATTTTATTAA [XGTACX_site7166]”, “TAAAATATACAAATTTGTACATATATATGTATGTAT [XGTACX_site1127]” is higher in “gcPBM binding intensity (ln)” value: 7.04 for the first, 7.24 for the second.

Compared with “TGCAGGTGTTATTCACGTACGCATTTGATTAAAAAA [XGTACX_site7743]”, “ATTAGAAAATAAAATAATAAATAAAATAAAAAAAAA [CACACA_negctrl_site409]” is lower in “gcPBM binding intensity (ln)” value: 7.01 for the first, 6.65 for the second.

Going from “ATAAAAACATAAAAATGTACATATATATATATATAT [XGTACX_site7165]” to “AATATTAGGTTATGTAGTACATAACAATAATTATAC [XGTACX_site5733]”, the “gcPBM binding intensity (ln)” value falls from 9.51 to 7.26.

First: TTTTATTTTATTCAATTTTTACTTTTATAAAAATAT [GTGCAC_negctrl_site578]
Second: ATGTATATGCAAACATGTACATATATAAACATATAT [XGTACX_site4159]
The “gcPBM binding intensity (ln)” value of the first is higher: 6.95 for the first, 6.86 for the second.

First: GTGTTGGGAAAAGGCATGCACTTTTTTTTTTTTTTT
Second: ATAAAGAATATAAATACACACTTAAATATATATTAT [CACACA_site6071]
The “gcPBM binding intensity (ln)” value of the first is higher: 9.34 for the first, 6.82 for the second.

Compared with “AAGGAATATGTATATACACACAGGTACATATTTATA [CACACA_site6344]”, “CACAAAAATTTATACACACACATATAAAATATAGAT [CACACA_site6218]” is lower in “gcPBM binding intensity (ln)” value: 7.05 for the first, 6.96 for the second.

First: TTCACTATACAAAGGTGTACTTAATTTTGTCCCATT [XGTACX_site7483]
Second: AGTTATTACACACAAACATGCATTAATATCAAAAAA [TGCATGCA_site63]
The “gcPBM binding intensity (ln)” value of the first is lower: 7.15 for the first, 7.3 for the second.

Compared with “AATTCACATGTGAACTAAAAGAATATTATATATATA [CACACA_negctrl_site1632]”, “AAATATATATATAGTACATGCAGTAGATAATTTAAT [TGCATGCA_site299]” is lower in “gcPBM binding intensity (ln)” value: 8.12 for the first, 7.16 for the second.

First: ATTAGGTATTTTTTTTGTACATATTATATAATGTGA [XGTACX_site3815]
Second: AATGATCAGATATACACACACACAAAAAAAAAAAAA [CACACA_site7806]
The “gcPBM binding intensity (ln)” value of the first is higher: 7.02 for the first, 6.99 for the second.

Going from “GTAAATAAATAAATAAATAAATATATATATATATAT [CACACA_negctrl_site1737]” to “AATAAAAAAAAATTCACACAAAGTTAGATTAACTAT [CACACA_site4224]”, the “gcPBM binding intensity (ln)” value falls from 9.32 to 6.6.

Going from TTTATATTTAAAAGGATGCACTACAAATTCTAAATA to “TATCCTTATATTTGCACACACACACCCTAAAATGAA [CACACA_site1029]”, the “gcPBM binding intensity (ln)” value falls from 9.22 to 7.75.

Going from “CTACAATATCTTTAAAGTACTTTTATATAACTACCA [XGTACX_site6119]” to “AAGACAAATATGAAGAGTACATTTATATAAAAATTA [XGTACX_site5142]”, the “gcPBM binding intensity (ln)” value falls from 7.24 to 6.85.

Compared with “AAAACAAACAGACACACACACATATTTATATTTATA [CACACA_site7681]”, “TTATATTAAACAAACACACACATATAAATATAAATA [CACACA_site7174]” is higher in “gcPBM binding intensity (ln)” value: 7.04 for the first, 7.09 for the second.

First: ATTTTTTCCAATTCTTTACCTTAGAAAGGTGTTCAA [CACACA_negctrl_site1401]
Second: ATATATTTTTATGTAGTGCATTTAAATAATAAATGC
The “gcPBM binding intensity (ln)” value of the first is lower: 6.9 for the first, 8.42 for the second.

Compared with “ATATATATATAATGAAGTACGAAAAAATAAGAAATG [XGTACX_site4001]”, “ACCTCATAATATTTAACACACAAAATTATATGTATG [CACACA_site1704]” is lower in “gcPBM binding intensity (ln)” value: 8.33 for the first, 7.3 for the second.

First: ATTCTAAATAAATGTACACACAAAAATAAATGTATA [CACACA_site1732]
Second: AAAAAAAAAAAGATAAATACAAGTTACACAAAAAAA [GTGCAC_negctrl_site664]
The “gcPBM binding intensity (ln)” value of the first is higher: 7.34 for the first, 6.78 for the second.

Compared with ACGTTGCGACGCAAGGTGCTTATTTTCTTATAAATA, “AACAAATTTTTTATTAAACACACAAACATATATATA [CACACA_site8588]” is lower in “gcPBM binding intensity (ln)” value: 8.02 for the first, 7.27 for the second.

Going from “GCTCATTGAAATTATACACACCAAATATATAAATAT [CACACA_site5385]” to “TGTGAATATATCTTTAAAAAGGATAAATAATAATTT [CACACA_negctrl_site507]”, the “gcPBM binding intensity (ln)” value falls from 7.22 to 6.76.

First: TATGAATATTGCATGTGTACCTATTATCCTTTTAAA [XGTACX_site4311]
Second: ATAATTATTTTCCCGTGTACTTATTTTTTTCAAGTA [XGTACX_site8843]
The “gcPBM binding intensity (ln)” value of the first is lower: 7.05 for the first, 7.53 for the second.
